In patent publication US20260258397A1, “REAGENTS AND SYSTEMS FOR […]” (priority 2023, published 2026):

Each compound was assayed against T1, PYR1^PIRI (Arabidopsis thaliana, UniProt O49686, A160T/E130G/F159T/K59R/N119S/S122Q/S92M/V174A) (assay: cell-based). Conditions: PYR1-PIRI; fit bottom of GFP fluorescence response.
T1 construct: expressed in transfected cells; host or cells: S. cerevisiae (2µ plasmid)
T1 sequence (O49686 1-191 K59R/S92M/N119S/S122Q/E130G/F159T/A160T/V174A): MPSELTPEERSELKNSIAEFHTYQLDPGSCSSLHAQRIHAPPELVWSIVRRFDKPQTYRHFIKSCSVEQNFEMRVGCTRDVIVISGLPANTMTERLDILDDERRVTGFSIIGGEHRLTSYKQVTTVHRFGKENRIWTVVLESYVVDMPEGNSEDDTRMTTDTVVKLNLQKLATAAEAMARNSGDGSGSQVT
T1 sequence (Q9CAJ0 178-511 partner): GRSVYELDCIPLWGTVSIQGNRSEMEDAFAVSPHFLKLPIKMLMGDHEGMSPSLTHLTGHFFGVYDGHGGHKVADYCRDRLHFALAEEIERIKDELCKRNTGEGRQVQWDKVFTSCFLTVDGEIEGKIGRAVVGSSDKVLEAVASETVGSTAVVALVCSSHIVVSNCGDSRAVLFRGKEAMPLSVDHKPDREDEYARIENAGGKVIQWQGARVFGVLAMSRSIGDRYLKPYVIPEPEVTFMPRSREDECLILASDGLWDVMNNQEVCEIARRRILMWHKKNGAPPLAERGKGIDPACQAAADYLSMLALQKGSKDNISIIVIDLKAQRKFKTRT
Format: cell-based
From the text: PYR1 variants were used to drive gene expression in an inducible genetic circuit by fusing a zinc finger DNA binding domain (Z4^32) to the N-terminus of PYR1, and the VP64 activation domain 33 to the N-terminus of ΔN-HAB1. The SV40 nuclear localization signal was also fused to the N-terminus of PYR1. A single 2u plasmid was used to express SV40-Z4DBD-PYR1 and VP64-HAB1, while the GFP expression cassette (Z44-CYCcore-GFP-CYC 1term) was integrated at the YPRCΔ15 site on chromosome XVI. GFP fluorescence induced by each circuit was measured 12 h after ligand addition to 1 mL cultures, 30° C. Fluorescence was measured by flow cytometry. […] The fluorescence intensity of each cell was measured using a BD Accuri C6 flow cytometer equipped with auto-loading. The forward scatter, side scatter, and GFP fluorescence (Ex/Em 488/533 nm) were recorded for a minimum of 10,000 events. […]
Three single transformants were picked from selection plates, inoculated in 2 mL of SD-Ura containing 2% glucose in 14 mL culture tubes. After 24 hours of growth at 30° C. in a shaker incubator (200 rpm), the OD600 of each sample was measured and cultures were back diluted to OD600=0.2 in fresh SD-Ura, the total volume of diluted culture was 9 mL. […] The fluorescence intensity of cells within each sample was measured using a BD Accuri C6 flow cytometer equipped with auto-loading from 96 well plates. […]

SMILES | Bottom
CCOP(=S)(OCC)SCn1nnc2ccccc2c1=O [Azinphos, azinphos-ethyl] | 15284
CCOP(=S)(OCC)Oc1ccc2c(C)c(Cl)c(=O)oc2c1 [Coumaphos] | 13267

These compounds were tested on PYR1 mutant receptors (ligand-dependent binding to HAB1) (assay: Yeast two-hybrid screens of PYR1 DSM and CB-S libraries for cannabinoid sensors). Conditions: CB-S1 library screened on 30 μM: JWH-007 PYR1 K59S/V83W/Y120G/F159A; JWH-167 and AB-PINACA Y120G/F159L/A160G; JWH-193 Y120G/F159V/A160G; A9-THC E4G/H115Q/Y120G/A160G.

SMILES | concentrations to which sensors respond
CCCCCc1cc(O)c2c(c1)OC(C)(C)[C@@H]1CCC(C)=C[C@@H]21 [A9-THC] | μM concentrations
CCCCCn1nc(C(=O)N[C@H](C(N)=O)C(C)C)c2ccccc21 [AB-PINACA] | μM concentrations
CCCCCn1c(C)c(C(=O)c2cccc3ccccc23)c2ccccc21 [JWH-007] | μM concentrations
CCCCCn1cc(C(=O)Cc2ccccc2)c2ccccc21 [JWH-167] | μM concentrations
Cc1ccc(C(=O)c2cn(CCN3CCOCC3)c3ccccc23)c2ccccc12 [JWH-193] | μM concentrations

Same assay, conditions: CB-S2 library screened on 50 nM, 25 nM: JWH-015 PYR1 K59N/Y120H/F159L/A160G; JWH-016 V81I/Y120G/F159L/A160G; JWH-072 E4G/K59N/Y120H/F159L/A160G; WIN 55,212 E4G/Y23H/D26G/K59Q/F159A/A160I

SMILES | affinity of improved sensors
CCCn1c(C)c(C(=O)c2cccc3ccccc23)c2ccccc21 [JWH-015] | low nM affinity
CCCCn1c(C)c(C(=O)c2cccc3ccccc23)c2ccccc21 [JWH-016] | low nM affinity
CCCn1cc(C(=O)c2cccc3ccccc23)c2ccccc21 [JWH-072] | low nM affinity
